Counter-ions that a name gives are not always drawn. ± gives the standard deviation of the averaged measurements. In all, about 3,200 compounds were measured (“nuclei count (viability) relative to DMSO”: median about 99, lowest 2% from about 16 on). Some of the results follow.

From the supplement of paper PMC8183993 come the findings set out here.

The experiment relates to U2OS. As to the kind of experiment: nuclei count (viability) relative to DMSO (% of DMSO); higher = more viable cells. The conditions noted are these: 10 µM; 24 h. As to the method:
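Primary image-based screen in U2OS cells: compounds at 10 uM for 24 h, then a 1 h o-propargyl-puromycin (OPP) pulse, click labelling, and high-throughput microscopy. Mean cytoplasmic OPP intensity and nuclei count were normalised to DMSO wells within each plate (DMSO = 100) and averaged over triplicate plates.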
In the case of `COC(=O)c1sccc1S(=O)(=O)Nc1ccc(Nc2ccccc2)cc1OC`, the nuclei count turned out to be 93.7. Consider `Cn1ccnc1S` [Methimazole], for which the nuclei count came to 94.2. Next, `Cn1ccnc1S` [Methimazole (Tapazole, Northyx)]: 105.

For the molecule `Nc1c(Br)cc(Br)cc1CN[C@H]1CC[C@H](O)CC1` [Ambroxol], the nuclei count was 104. Next, `Nc1c(Br)cc(Br)cc1CN[C@H]1CC[C@H](O)CC1` [Ambroxol hydrochloride]: 102 ± 2; `CC1Nc2ccc(Cl)cc2S(=O)(=O)N1` (centres undefined): 111; `Nc1ccc(-c2nc3ccc(-c4nc5ccc(N)cc5[nH]4)cc3[nH]2)cc1`: 82.2. As for `C=CC(=O)Nc1cccc(Nc2nc(Nc3ccc(N4CCN(C(C)=O)CC4)cc3OC)ncc2C(F)(F)F)c1`, the figure is 57.6; as for `CS(=O)(=O)CCNCc1ccc(-c2ccc3ncnc(Nc4ccc(OCc5cccc(F)c5)c(Cl)c4)c3c2)o1` [Lapatinib Ditosylate (Tykerb)], 93.8. `COc1cc(Nc2ncc(F)c(Nc3ccc4c(n3)NC(=O)C(C)(C)O4)n2)cc(OC)c1OC` [R406(free base)] gave a nuclei count of 87.2. Next, `COc1cc(Nc2ncc(F)c(Nc3ccc4c(n3)NC(=O)C(C)(C)O4)n2)cc(OC)c1OC`: 81.8; `CC(=O)[C@@]1(O)CC[C@H]2[C@@H]3CCC4=CC(=O)CCC4=C3[C@@H](c3ccc(N(C)C)cc3)C[C@@]21C` [Ulipristal]: 99.7. As for `CC(C)(Oc1ccc(Cl)cc1)C(=O)O` [Clofibric acid], the figure is 103 ± 4; as for `COc1ccc(C(=O)Nc2sc3c(c2C(N)=O)CCCC3)cc1OC`, 107 ± 3.4; as for `CN(C)CC/C=C1\c2ccccc2CSc2ccccc21` [Dosulepin hydrochloride], 104. In the case of `O=NO` [Sodium Nitrite], the nuclei count is 104. Turning to `CC(N)(Cc1ccc(O)c(O)c1)C(=O)O` [L-(-)- _-Methyldopa], the nuclei count is 83.6.

In turn, `O=c1cc(N2CCNCC2)oc2c(-c3ccccc3)cccc12` gave a nuclei count of 91.8. As for `COc1cc2ncc(-c3ccccc3)nc2cc1OC` [Tyrphostin AG 1296 (AG 1296)], the figure is 103.

Consider `Cn1c(=O)c2c(ncn2CC(=O)O)n(C)c1=O` [Acefylline], for which the nuclei count was 104.

Molecule `CS(=O)(=O)c1cccc(CNc2nc(Nc3ccc4c(c3)CCC(=O)N4)ncc2C(F)(F)F)c1` registered a nuclei count of 45.9 ± 3.2. As for `CC1(C)CCC(CN2CCN(c3ccc(C(=O)NS(=O)(=O)c4ccc(NCC5CCOCC5)c([N+](=O)[O-])c4)c(Oc4cnc5[nH]ccc5c4)c3)CC2)=C(c2ccc(Cl)cc2)C1`, the figure is 95.1; as for `CCCCCCCCCCC[C@@H](C[C@@H]1OC(=O)[C@H]1CCCCCC)OC(=O)[C@H](CC(C)C)NC=O` [Orlistat (Alli, Xenical)], 90.5; as for `CCCCCCCCCCC[C@@H](C[C@@H]1OC(=O)[C@H]1CCCCCC)OC(=O)[C@H](CC(C)C)NC=O` [Orlistat], 97.9.

On to `Cc1ccc(NC(=O)c2ccc(CN3CC[C@H](N(C)C)C3)c(C(F)(F)F)c2)cc1Nc1nccc(-c2cncnc2)n1` [Bafetinib (INNO-406)], for which the nuclei count stood at 77.9. As for `CC(C)(S)[C@@H](N)C(=O)O` [Penicillamine], the figure is 99.3. As for `COc1ccc(-c2ccc(=N)n(CCCC(=O)O)n2)cc1`, the figure is 104; as for `COc1ccc(-c2ccc(=N)n(CCCC(=O)O)n2)cc1` [Gabazine bromide], 103. Turning to `CO[C@H]1C[C@H](O[C@H]2[C@H](C)[C@@H](O[C@@H]3O[C@H](C)C[C@H](N(C)C)[C@H]3OC(C)=O)[C@@H](C)C[C@@]3(CO3)C(=O)[C@H](C)[C@@H](OC(C)=O)[C@@H](C)[C@@H](C)OC(=O)[C@@H]2C)O[C@@H](C)[C@@H]1OC(C)=O` [Troleandomycin], the nuclei count is 105.

The molecule `Cc1cc(C(=O)NNCc2ccccc2)no1` [Isocarboxazid] had a nuclei count of 109. Next, `O=C1CC2(CCCC2)CC(=O)N1CCNCC1COc2ccccc2O1` (centres undefined): 104; `CCOC(=O)[C@H](CCc1ccccc1)N[C@@H](C)C(=O)N1CCC[C@H]1C(=O)O` [Enalapril maleate]: 111. Next, `CCOC(=O)[C@H](CCc1ccccc1)N[C@@H](C)C(=O)N1CCC[C@H]1C(=O)O` [Enalapril]: 110. As for `CO/N=C(\C(=O)N[C@@H]1C(=O)N2C(C(=O)O)=C(C[N+]3(C)CCCC3)CS[C@H]12)c1csc(N)n1` [Cefepime hydrochloride], the figure is 88.7; as for `C=CC(=O)Nc1ccc2ncnc(Nc3ccc(OCc4cccc(F)c4)c(Cl)c3)c2c1`, 73.2 ± 31; as for `CC(Oc1c(Cl)cccc1Cl)C1=NCCN1` (centres undefined) [Lofexidine], 111.

The molecule `CC1=C(CC(=O)O)c2cc(F)ccc2/C1=C\c1ccc([S+](C)[O-])cc1` (centres undefined) [Sulindac] yielded a nuclei count of 92.1 ± 4.9. In turn, `C=CC(=O)N1CCC[C@@H](n2nc(-c3ccc(Oc4ccccc4)cc3)c3c(N)ncnc32)C1` displayed a nuclei count of 92.82 ± 0.64. Take `CCc1cccc2c3c([nH]c12)C(CC)(CC(=O)O)OCC3` (centres undefined) [Etodolac]: the nuclei count is 110. Next, `CCc1cccc2c3c([nH]c12)C(CC)(CC(=O)O)OCC3` (centres undefined) [Etodolac (Lodine)]: 102. `Cc1noc(NS(=O)(=O)c2ccc(N)cc2)c1C` [Sulfisoxazole] displayed a nuclei count of 101 ± 3.1. Next, `CCC[C@H](NC(=O)[C@@H]1[C@H]2CCC[C@H]2CN1C(=O)[C@@H](NC(=O)[C@@H](NC(=O)c1cnccn1)C1CCCCC1)C(C)(C)C)C(=O)C(=O)NC1CC1` [Telaprevir (VX-950)]: 98.8; `C[C@@H]1CN(CC(=O)Nc2ccc3c(c2)Cc2cccc(-c4cc(=O)cc(N5CCOCC5)o4)c2S3)C[C@H](C)O1`: 96; `CC[N+](CC)(CC)CCC(O)(c1ccccc1)C1CCCCC1` (centres undefined) [Tridihexethyl chloride]: 99.6.

The molecule `CN(C)CCCO[C@@H]1[C@H]2OC(C)(C)O[C@H]2O[C@@H]1[C@H](O)CO` [Amiprilose hydrochloride] showed a nuclei count of 105. `C[C@]12CC[C@@H]3c4ccc(O)cc4CC[C@H]3[C@@H]1C[C@@H](O)[C@@H]2O` [Estriol]: the nuclei count worked out at 106 ± 6.4. As for `Cc1nc(N)sc1-c1ccnc(Nc2ccc(N3CCOCC3)cc2)n1`, the figure is 50.1; as for `COc1ccc(CNC(=O)Nc2ncc([N+](=O)[O-])s2)cc1`, 96.8 ± 6.5. As for `OCCOCCN1CCN(C(c2ccccc2)c2ccc(Cl)cc2)CC1` (centres undefined) [Hydroxyzine dihydrochloride], the figure is 89.8.
